The data set concerns the molecule itself. The data set is described as follows: cryo-EM structure; phi-particle of full-length dynein; freshly purified dynein at about 0.15 mg/ml in GF150 (25 mM HEPES pH 7.4, 150 mM KCl, 1 mM MgCl2, 5 mM DTT, 0.1 mM ATP) on carbon-coated gold grids; whole particle 15 Å, tail 8.4 Å, motor domain dimer 3.8 Å.

B1: human dynein light chain Robl, as a subunit of the dynein complex (natural protein)
chain: not shown
notes: dynein light chain Robl/LC7 (DYNLRB1), human; Stood in the assays within the whole dynein complex; also called LC7; DYNLRB1; source: Sf9, co-expressed and purified as part of the dynein complex (IgG Sepharose, TEV cleavage, SEC)
As for B1, the binding result is reported as “binds”.

For the origin of these results see article PMC5473941, “Cryo-EM Reveals How Human Cytoplasmic Dynein Is Auto-inhibited and Activated” (Cell, 2017).
